56 compounds from PubChem BioAssay AID463173 (ICCB-Longwood Screening Facility, Harvard Medical School, 2010) can be followed below.

Among all 52,000 compounds or so, about 1,700 (3.3%) were called active. Rule as the data show it: active = survival mostly below about 52% (no sharp cut-off); inactive = mostly above about 56%. The list shows a part of the results.

The experiment has as its system Wild type. Put plainly: S. aureus survival, RN4220 and DeltatarO strains – OD600, teichoic acid synthesis inhibitors, primary screen (AID 463173). Conditions: S. aureus RN4220 wild type/DeltatarO growth, OD600, 18 h, hits give low values, screened at 18.75 µg/mL (by protocol).
As for `CCOc1ccc(CCNC(=O)c2ccc(CS(=O)Cc3ccc(Cl)cc3)o2)cc1` (stereo unspecified), the survival is inactive: 69%.
For `CCCCOc1ccc(C(=O)N(Cc2nc(-c3ccc(Cl)cc3)no2)C(C)C)cc1`, the survival was inactive: 85%.
Consider `COc1ccc(CC(=O)NCCc2sc(-c3cccc(F)c3)nc2C)cc1`, for which the survival was inactive: 86%.
Next, `Cc1ccc(Cn2c(C)c(CNCc3ccc(OC(C)C)cc3)c(C(=O)O)c2C)cc1`: inactive: 147%; `CC(=O)N1CCc2cc(Br)cc(S(=O)(=O)CCC(=O)NCCc3ccc(Cl)cc3)c21`: inactive: 67%; `CN1CCc2c(sc3c2C(=O)NC(c2ccc(OC(=O)c4ccc(Cl)cc4)cc2)N3)C1` (stereo unspecified): inactive: 75%.
Under `COc1ccc(C(=O)Nc2ccc3oc(-c4cccc5c(Br)cccc45)nc3c2)cc1` stands inactive: 86%; under `CCN1CCc2c(sc(NC(=O)c3ccc(S(=O)(=O)N4CCCC(C)C4)cc3)c2C(=O)OC)C1` (stereo unspecified), inactive: 71%.
Under `O=C(CNC(=O)c1ccc(F)cc1)OCc1cc(=O)n2ccsc2n1` stands inactive: 58%; under `O=S1(=O)c2ccccc2N(Cc2ccccc2F)c2ccccc21`, inactive: 101%.
On to `CCCCN(C)C(=O)c1ccc2c(=O)n3nc(Nc4cc(C)ccc4C)sc3nc2c1`, for which the survival is inactive: 140%.
As for `Cc1c(Cl)cccc1NC(=O)C(=O)NCCc1csc(-c2ccc(C(F)(F)F)cc2)n1`, the survival was inactive: 47%.
For the compound `Cc1ccccc1Cn1c(CN2CCC(C(=O)NCc3ccc(Cl)cc3)CC2)cc2ccccc21`, the survival is inactive: 60%.
With `Cc1cc(C(C)(C)C)oc1C(=O)O`, the survival is inactive: 103%.
Take `Cc1cc(C)c(OCC(=O)N(Cc2ccc(N(C)C)cc2)Cc2ccco2)c(C)c1`: the survival is inactive: 82%.
For the compound `O=C(NCc1ccc2c(c1)OCO2)c1ccc2c(c1)N(Cc1c(F)cccc1Cl)C(=O)c1ccccc1S2`, the survival was inactive: 84%.
Next, `Cc1cc(C)cc(NC(=O)COc2cccc3c(=O)n(C)ccc23)c1`: inactive: 72%; `COc1ccc(CCNC(=O)c2ccc(-n3c(C)cc4c3CCC(C)C4)cc2)cc1OC` (stereo unspecified): inactive: 64%.
`COc1ccc(C(=O)c2cn(CC(=O)Nc3cc(OC)cc(OC)c3)c3ccc(OC)cc3c2=O)cc1`: the survival was inactive: 88%.
As for `COC(=O)c1ccccc1NC(=O)Cn1c(=O)n(CCC(=O)NCc2ccc3c(c2)OCO3)c(=O)c2ccccc21`, the survival was inactive: 100%.
Consider `Cc1ccc(Cn2nc3n(c2=O)-c2cc(Cl)ccc2OC3)cc1`, for which the survival is inactive: 76%.
Take `COc1ccc(-n2c(-c3cccc(F)c3)nc3c(cnn3-c3ccc(C)cc3)c2=O)cc1`: the survival is inactive: 117%.
Under `Cc1ccc(-c2csc(-c3c(N)c(C(=O)c4ccc5c(c4)OCO5)n4ccccc34)n2)cc1` stands inactive: 103%.
Under `Cc1ccc(-c2cn3nc(N4CCCC(C(=O)NCc5ccccc5F)C4)sc3n2)cc1` (stereo unspecified) stands inactive: 71%; under `CC1=C(C(=O)OC2CCCC2)C(c2c(F)cccc2Cl)CC(=O)N1` (stereo unspecified), inactive: 87%; under `CS(=O)(=O)N1CCC(C(=O)NC2CCCCC2)CC1`, inactive: 107%.
Turning to `CCOC(=O)c1c(S(=O)(=O)N2CCC(C(=O)NCc3cccc(OC)c3)CC2)c(C)n(C)c1C`, the survival was inactive: 68%.
`Cn1ccnc1SCC(=O)Nc1cccc(Br)c1`: the survival is inactive: 71%.
Regarding `COc1cccc(N2C(=O)C(CC(=O)Nc3cccc(F)c3)N(C3CCCC3)C2=O)c1` (stereo unspecified), the survival was inactive: 124%.
Under `Cc1ccc(CC2CC(=O)N(C3CCCCC3)C2=O)cc1` (stereo unspecified) stands inactive: 114%; under `Cc1cccc(N(C)C(=O)Cn2c(=O)oc3cc(S(=O)(=O)N4CCCCC4)ccc32)c1`, inactive: 76%; under `COc1ccc(-c2nc3ccccc3o2)cc1NC(=O)Cc1ccc(Cl)cc1`, inactive: 68%.
With `Cc1ccc(CNC(=O)c2ccc3c(c2)CCN3S(=O)(=O)c2ccc(Br)cc2)cc1`, the survival was inactive: 90%.
Next, `S=c1nc(-c2csc3c2CCCC3)[nH][nH]1`: inactive: 101%; `COc1ccc(C2CC(=O)c3cc(-c4nc(-c5cccc([N+](=O)[O-])c5)cs4)c(=O)n(-c4ccccc4N)c3C2)cc1` (stereo unspecified): inactive: 154%.
Next, `Cc1nc2ccn(Cc3ccco3)c(=O)c2cc1C(=O)NCc1ccc(Cl)cc1`: inactive: 60%.
Under `NC(=O)c1cc(S(=O)(=O)NCc2cccc(Br)c2)cs1` stands inactive: 77%.
For the compound `COC(=O)c1ccc(NC(=O)Cn2c(=O)oc3ccccc32)cc1`, the survival was inactive: 80%.
On to `CCN(c1ccc(OC)cc1)S(=O)(=O)c1ccc2[nH]c3c(c2c1)CCCCC3`, for which the survival was inactive: 87%.
For the compound `COc1ccc(N2CC(NC(=O)C3CCCCC3)CC2=O)cc1` (stereo unspecified), the survival is inactive: 80%.
Regarding `CCn1c(SCC(=O)Nc2cc(C)ccc2F)nnc1-c1ccccc1O`, the survival is inactive: 63%.
Next, `COc1ccc(CC(=O)N2CC(=O)Nc3ccc(F)cc3C2c2ccccc2)cc1` (stereo unspecified): inactive: 76%.
Take `CCOC(=O)CNC(=O)N1CCN(S(=O)(=O)c2ccc3c(ccn3C)c2)CC1`: the survival is active: 0%.
With `CCCOc1ccc(C2c3c(oc4ccccc4c3=O)C(=O)N2c2nnc(C(C)C)s2)cc1` (stereo unspecified), the survival is inactive: 59%.
As for `CC1CCCCN1C(=O)c1cccc(C(=O)N2CCCCC2C)c1` (stereo unspecified), the survival was inactive: 109%.
With `CNC(=O)N(O)c1ccccc1`, the survival is inactive: 114%.
Consider `CC(=O)c1ccc(NC(=O)C2CCN(S(=O)(=O)c3ccc4[nH]c5c(c4c3)CCCCC5)CC2)cc1`, for which the survival was inactive: 71%.
Turning to `COc1ccccc1CNC(=O)c1ccc(N2CCCC2)c(NC(=O)NCc2ccc(C)cc2)c1`, the survival was inactive: 60%.
For the compound `Cc1ccccc1CNC(=O)Cn1c(=O)c2cccn2c2cccnc21`, the survival was inactive: 85%.
Next, `CCc1ccc(CNC(=O)C2CCN(c3nn4cc(-c5ccc(OC)cc5)nc4s3)CC2)cc1`: inactive: 81%; `COc1ccc(C2=NC(c3ccccc3)=Nc3ccc(C)cc3N2)cc1`: inactive: 88%; `COC(=O)c1ccccc1NC(=O)c1ccc(CN2CC(=O)N3CCCCC3C2=O)cc1` (stereo unspecified): inactive: 67%.
Consider `CN1CCN(C(=O)c2ccc3c(c2)N(Cc2ccc(F)cc2)C(=O)c2ccccc2S3(=O)=O)CC1`, for which the survival was inactive: 85%.
Under `COc1ccc(NC(=O)CSc2nnc(-c3ccncc3)n2-c2ccccc2)cc1` stands inactive: 73%; under `COc1ccccc1N1CCN(CC(O)COc2ccc(Cl)c(C)c2)CC1` (stereo unspecified), inactive: 66%.
Under `O=C(CSc1n[nH]c(-c2ccc(F)cc2)n1)N1CCN(c2ccc(F)cc2)CC1` stands active: -6%.
